# Experimental data from PubChem BioAssay AID588342 (National Center for Advancing Translational Sciences (NCATS), 2011).
# Among all 360,000 compounds or so, about 25,000 (6.9%) were called active. This list was built around the results that the source calls inconclusive (neither active nor inactive); the mix of calls is not that of the screen. Calls follow the shape of the dose curve; as a rule, active = well fitted inhibition curve with a large enough effect; inconclusive = small, poorly fitted or top-dose-only effect; inactive = flat fitted curve, though single readings scatter. A potency beside an inconclusive call is a rough fit, not a confirmed value.
# Molecular target: Luciferin 4-monooxygenase (Photinus pyralis) (UniProt P08659)
# Chain of UniProt P08659 (P08659 whole entry, looked up): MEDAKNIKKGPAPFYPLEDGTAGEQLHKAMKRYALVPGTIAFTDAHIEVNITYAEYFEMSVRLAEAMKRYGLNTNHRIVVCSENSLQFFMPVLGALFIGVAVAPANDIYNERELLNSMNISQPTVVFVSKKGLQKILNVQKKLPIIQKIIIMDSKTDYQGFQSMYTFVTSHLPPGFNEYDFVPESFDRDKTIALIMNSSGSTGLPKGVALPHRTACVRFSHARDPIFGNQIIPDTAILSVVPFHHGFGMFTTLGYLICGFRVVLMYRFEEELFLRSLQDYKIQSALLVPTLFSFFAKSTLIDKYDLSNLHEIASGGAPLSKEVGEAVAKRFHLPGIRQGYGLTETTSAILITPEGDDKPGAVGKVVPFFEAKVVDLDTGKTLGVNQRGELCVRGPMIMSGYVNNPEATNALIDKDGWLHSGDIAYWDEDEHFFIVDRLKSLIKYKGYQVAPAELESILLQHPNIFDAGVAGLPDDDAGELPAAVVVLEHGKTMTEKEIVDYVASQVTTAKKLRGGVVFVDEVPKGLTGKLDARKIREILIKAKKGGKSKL
# Assay: qHTS profiling assay for firefly luciferase inhibitor/activator using purifed enzyme and Km concentrations of substrates (counterscreen for miR-21 project); also: nearly all actives have a fitted effect of over 55% in size;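 as to activity change, negative = inhibition: plate controls were vehicle for no effect and reference inhibitor for full effect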
# Settings: purified FLuc, luminescence inhibition; series mostly up to 57.5 µM; activity change, negative = inhibition: at the top concentration
# Method in brief: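 Biochemical qHTS of compounds, final roughly 60 µM downward over six points, against 10 nM purified firefly luciferase using Km concentrations of substrates (10 uM D-luciferin, 10 uM ATP) in Tris acetate pH 7.5 buffer; luminescence output.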
# Potency is read from the fitted curve at half-maximal effect; tags tell the direction and shape of the fitted curve.
SMILES,Potency,"activity change, negative = inhibition"
COc1ccc(C(=O)NCc2ccc3c(c2)cc(C)n3C)cc1OC,"inconclusive: 37.9 µM [inhibitor, partial curve, poor fit]",–
Cc1cc(/C=N/N2CCN(C)CC2)c(C)n1-c1ccccc1F,"inconclusive: 30.1 µM [inhibitor, single point]",–
COc1cccc(C(=O)NC(=S)Nc2ccc(Cl)cc2C(=O)O)c1,"inconclusive: 30.1 µM [inhibitor, partial curve, poor fit]",–
COc1ccc(/C=C2\SC(=N)N(c3nccs3)C2=O)cc1OC,active: 2.13 µM,–
Cc1ccc(C(=O)CCC2CCCC2=O)cc1 (stereo unspecified),active: 12 µM,–
CCCc1nnc(NC(=O)CS(=O)(=O)c2ccccc2)s1,–,inactive: 0.341%
O=C(/C=C/c1ccccc1)OCC(=O)c1ccc[nH]1,"inconclusive: 13.5 µM [inhibitor, partial curve, poor fit]",–
CCC(C)(C)c1ccc(Oc2cccc(C(=O)O)c2)cc1,"inconclusive: 21.3 µM [inhibitor, single point]",–
S=C(Nc1ccccc1Cl)N(Cc1ccccc1)Cc1ccccn1,–,inactive: -8.63%
CCCC(=O)Nc1ccc2c(c1)Cc1ccccc1-2,active: 9.53 µM,–
C/C(N)=C(/C#N)C(=O)CSc1nnc(-c2ccc(OC(F)F)cc2)o1,active: 2.69 µM,–
Cc1ccc(NC(=O)CN(C)S(=O)(=O)c2cccc3nsnc23)c(C)c1,–,inactive: -9.12%
COc1cc(C2C(=O)N(C3CCC(C)CC3)CC(=O)N2CCc2ccc(Cl)cc2)ccc1OC(C)C (stereo unspecified),–,inactive: 3.73%
O=C(CN1C(=O)/C(=C/c2ccccc2)SC1=S)NNC(=O)c1ccccc1O,"inconclusive: 10.7 µM [inhibitor, partial curve, poor fit]",–
CCOC(=O)Cc1csc(NC(=O)COc2ccc3ccccc3c2)n1,active: 13.5 µM,–
COCCn1c(C)cc(C(=O)COC(=O)c2ccc[nH]c2=O)c1C,active: 3.01 µM,–
c1ccc(OCCOc2ncnc3sccc23)cc1,"inconclusive: 21.3 µM [inhibitor, single point]",–
CCOc1ccc(C(=O)Nc2cccc3ncccc23)cc1Br,–,inactive: -13.4%
COc1cccc(NC(=O)CN(C)C(=O)c2ccc(NS(=O)(=O)c3ccc(F)cc3)cc2)c1,"inconclusive: 21.3 µM [inhibitor, single point]",–
COc1ccc(/C=N/NC(=O)c2nnn(-c3nonc3N)c2-c2cccc(OC)c2)cc1,"inconclusive: 26.9 µM [inhibitor, single point]",–
Fc1ccc(-c2cnn3c(-c4cccs4)ccnc23)cc1,active: 0.757 µM,–
COc1ccc(/C=C2\CCCc3c2nc2ccccc2c3C(=O)O)cc1OC,"inconclusive: 23.9 µM [inhibitor, single point]",–
COc1ccc(OCc2nnc(SCC(=O)N(C)Cc3ccccc3)n2N)cc1,"inconclusive: 21.3 µM [inhibitor, partial curve, poor fit]",–

SMILES,Potency,"activity change, negative = inhibition"
CCOc1ccc(CC(=O)NC2CC(=O)N(c3ccc4c(c3)OCCO4)C2)cc1 (stereo unspecified),–,inactive: -5.41%
Cc1cc(C)c(NC(=O)CCc2c(C)noc2C)c(C)c1,–,inactive: -1.27%
CCN(c1ccccc1)S(=O)(=O)c1nnc(NC(=O)COc2ccccc2F)s1,"inconclusive: 8.49 µM [inhibitor, partial curve, poor fit]",–
CC(C(=O)Nc1ccc2c(c1)OCO2)N1CCC(N2CCCCC2)CC1 (stereo unspecified),–,inactive: -0.24%
CCOc1ccc(NC(=O)c2oc3ccccc3c2NC(=O)Cc2ccc(OC)c(OC)c2)cc1,"inconclusive: 13.5 µM [inhibitor, partial curve]",–
NC(N)=N/N=C/c1ccc(OCc2ccccc2Cl)cc1,"inconclusive: 21.3 µM [inhibitor, partial curve, poor fit]",–
O=C(CSc1n[nH]c(-c2ccccc2Cl)n1)N1CCN(c2ccc(F)cc2)CC1,"inconclusive: 19 µM [inhibitor, partial curve, poor fit]",–
CC(C)c1nn2c(=O)cc(COC(=O)c3ccc(NC(=O)c4ccccc4Cl)cc3)nc2s1,–,inactive: -2.24%
CCOC(=O)C1CCN(C(=O)c2cc3c(s2)-c2ccccc2OC3)CC1,"inconclusive: 21.3 µM [inhibitor, single point]",–
COc1ccc(N/N=C2/CCCCC2=O)cc1,"inconclusive: 23.9 µM [inhibitor, partial curve]",–
COc1cccc(C2=NN(C(=O)c3ccc(C)o3)C(O)(C(F)(F)F)C2)c1 (stereo unspecified),"inconclusive: 37.9 µM [inhibitor, partial curve, poor fit]",–
C/C=C/C=C/C(=O)N1CC2(CC(c3cccc(NC(=O)CCCCC)c3)=NO2)C[C@H]1C(N)=O (stereo partly specified),–,inactive: -16.9%
Cc1cc(C)nc(N2N=C(CSc3ccc(Cl)cc3)CC2=O)n1,"inconclusive: 37.9 µM [inhibitor, partial curve, poor fit]",–
COc1ccccc1NC(=S)NNC(=O)c1ccccc1Br,"inconclusive: 9.53 µM [inhibitor, partial curve]",–
COc1ccc(CNC(=O)c2cc(Nc3ccc(OC)cc3OC)nc3ccccc23)cc1,active: 7.57 µM,–
CCOC(=O)c1ccc(NC(=O)c2ccc3c(c2)CCN3S(=O)(=O)c2ccc(Cl)cc2)cc1,–,inactive: 0.598%
COc1cc2[nH]c(=O)n(Cc3ccc(C(=O)N4CCN(c5cccc(C)c5C)CC4)cc3)c(=O)c2cc1OC,–,inactive: -5.21%
Cc1ccc(-n2nc(CO)c(C(=O)NCCO)n2)cc1,"inconclusive: 19 µM [inhibitor, partial curve]",–
Cc1c(C(=O)N2CCc3ccccc3C2)oc2ccccc12,active: 23.9 µM,–
CCc1ccc(C(=O)COC(=O)C2CCN(c3ccc(C(F)(F)F)cn3)CC2)cc1,"inconclusive: 21.3 µM [inhibitor, partial curve]",–
CC(CNC(=O)c1ccc(Cn2c(SCc3ccccc3)nc3cccnc32)cc1)c1ccccc1 (stereo unspecified),active: 4.78 µM,–
O=C(CCCN1C(=O)/C(=C\c2cccc(Br)c2)SC1=S)Nc1cccnc1,"inconclusive: 37.9 µM [inhibitor, partial curve, poor fit]",–
CCOC(=O)N1CCC(NC(=O)c2cnn(-c3cccc(C)c3)c2C2CCN(C(=O)OC(C)(C)C)CC2)CC1,–,inactive: 1.48%
